{
  "source": "ChEMBL document CHEMBL4888484",
  "about": "“Replenishing the malaria drug discovery pipeline: Screening and hit evaluation of the MMV Hit Generation Library 1 (HGL1) against asexual blood stage Plasmodium falciparum ,using a nano luciferase reporter read-out” (2022)",
  "note": "Among all 150,000 compounds or so, about 540 (0.36%) showed an effect of 50% or more. The list shows a part of the results.",
  "data": [
    {"tested_on": "Plasmodium falciparum", "test": "Primary screen in NF54 nanoGlo assay, in single point, at 2uM, 72h; a lower Z score goes with more inhibition", "assay_type": "functional, Erythrocyte", "settings": "timepoint 72 hour", "units": {"% Inhibition": "%"}, "values": [
      {"smiles": "COc1ccc(Oc2nc(N3CCCC3)c(Cl)c3c2N(Cc2ccccc2)CCS3(=O)=O)cc1", "% Inhibition": 10, "Z score": -1.09},
      {"smiles": "Cc1n(CC(=O)c2ccccc2)c2ccccc2[n+]1CC(=O)c1ccccc1", "% Inhibition": 59, "Z score": -12.26},
      {"smiles": "COc1ccc(-c2noc(-c3cccn3CC(N)=O)n2)cc1OC", "% Inhibition": 0, "Z score": 0.06},
      {"smiles": "C1=CC[C@@H](c2cn(Cc3ccc4c(c3)CCCO4)nn2)CC1", "% Inhibition": -9, "Z score": 1.72},
      {"smiles": "N#CCCn1cc(CNCCOc2ccccc2F)c2ccccc21", "% Inhibition": -2, "Z score": 0.3},
      {"smiles": "Cc1ccc([C@@H](C)Cc2cn(CCC(=O)N3CCCC3)nn2)o1", "% Inhibition": -11, "Z score": 2.09},
      {"smiles": "CN1CCN(S(=O)(=O)c2cccc(Cl)c2)C[C@]12CCNC(=O)CC2", "% Inhibition": 3, "Z score": -0.5},
      {"smiles": "Cc1noc(C)c1S(=O)(=O)Nc1cc(-c2cccs2)n[nH]1", "% Inhibition": -12, "Z score": 1.25},
      {"smiles": "Cc1cc(CN(C)Cc2cc(-c3ccc(C)o3)n[nH]2)on1", "% Inhibition": -15, "Z score": 1.46},
      {"smiles": "Cc1nc2c(C(=O)N3C[C@H](C)OC4(CCC4)C3)cccc2o1", "% Inhibition": -12, "Z score": 1.5},
      {"smiles": "CN(Cc1csc(-c2cccs2)n1)C(=O)c1cnn2ccccc12", "% Inhibition": -4, "Z score": 0.7},
      {"smiles": "O=C(c1cnc(N2CCOCC2)nc1)N1C[C@@H]2[C@H]3CC[C@H](CC3)[C@@H]2C1", "% Inhibition": -12, "Z score": 2.09},
      {"smiles": "Cn1cc(S(=O)(=O)N2CCC[C@@H]2CN2CCCC2)c(C(F)(F)F)n1", "% Inhibition": 19, "Z score": -2.37},
      {"smiles": "O=C1CC[C@@H]2CN(c3ncccn3)CC[C@@H]2N1CCc1cccs1", "% Inhibition": 3, "Z score": -0.55},
      {"smiles": "O=C(C1CC1)C1CN(C(=O)C2CC2c2ccccc2C(F)(F)F)CCO1", "note": "(centres undefined)", "% Inhibition": 4, "Z score": -0.62},
      {"smiles": "CNC(=O)[C@H]1CCN(Cc2ncc(C(F)(F)F)s2)C1", "% Inhibition": -7, "Z score": 0.94},
      {"smiles": "NC(=O)[C@]12CCC[C@H]1CN(C(=O)Cc1cccc3ncccc13)C2", "% Inhibition": -7, "Z score": 0.93},
      {"smiles": "Cc1cc(CN2C[C@H]3CN(C(=O)C(C)C)C[C@@]3(CO)C2)n(C)n1", "% Inhibition": 11, "Z score": -1.42},
      {"smiles": "CN(CCC#N)C(=O)CNc1c(F)cc(F)cc1Br", "% Inhibition": -5, "Z score": 0.45},
      {"smiles": "CC(C)c1nc2n(n1)[C@]1(CCS(=O)(=O)C1)Nc1ccccc1-2", "% Inhibition": -4, "Z score": 0.35},
      {"smiles": "CCC[C@H](C#N)c1ccc(Cl)cc1Cl", "% Inhibition": -1, "Z score": 0.09},
      {"smiles": "COC(=O)N1CC[C@H](Nc2nc3c(cc2C#N)CCC3)C1", "% Inhibition": -5, "Z score": 0.8},
      {"smiles": "c1ccc2c(c1)CN=C2N1CCCCC1", "% Inhibition": -1, "Z score": 0.11},
      {"smiles": "CCc1cc(-c2cccc(C(=O)NCCN3CCCC[C@@H]3CO)c2)nc(C)n1", "% Inhibition": 2, "Z score": -0.29},
      {"smiles": "Cc1[nH]cnc1CC(=O)NC[C@]1(O)CCCC1(C)C", "% Inhibition": -9, "Z score": 1.59},
      {"smiles": "COC[C@@](C)(O)CNC(=O)COc1ccccc1C", "% Inhibition": -14, "Z score": 1.98},
      {"smiles": "O=C(COc1ccccc1)N1CC(Cc2nncn2C2CCCC2)C1", "% Inhibition": -5, "Z score": 0.7},
      {"smiles": "Cc1scc(C(=O)N[C@@H](Cc2ccncc2)C(=O)O)c1C", "% Inhibition": 1, "Z score": -0.13},
      {"smiles": "O=C(c1ccncc1)N1CC[C@@]2(CCCN(Cc3ccc(F)c(F)c3)C2=O)C1", "% Inhibition": -17, "Z score": 1.58},
      {"smiles": "CCC[C@@H](CNC(=O)c1cc(C)c(O)c(C)c1)N(C)C", "% Inhibition": 6, "Z score": -0.85},
      {"smiles": "CNC(=O)N1CCC(N2CC3(CCCCC3)[C@H]2c2ccncc2)CC1", "% Inhibition": 1, "Z score": -0.15},
      {"smiles": "CCc1ccc(C(=O)N2CCCCCC2)o1", "% Inhibition": -17, "Z score": 3.11},
      {"smiles": "CC(C)OCc1cc(NC(=O)C2CCCCCC2)ccc1O", "% Inhibition": -15, "Z score": 2.29},
      {"smiles": "CCc1ccc(NC(=O)Cn2nc3n(c2=O)CCN(CC)C3=O)cc1", "% Inhibition": -6, "Z score": 1.07},
      {"smiles": "COc1cc(C(=O)NCC#N)ccc1F", "% Inhibition": -1, "Z score": 0.09},
      {"smiles": "CCc1ccc(CC(=O)N2CC(C)(C)[C@H]2c2cccnc2)nc1", "% Inhibition": 6, "Z score": -1},
      {"smiles": "C[C@@H](c1ccncn1)N(C)Cc1cn(CCC(N)=O)c2ccccc12", "% Inhibition": 16, "Z score": -2},
      {"smiles": "Cc1cc(NC(=O)C(C)(C)C#N)ccc1N(C)C", "% Inhibition": -5, "Z score": 0.52},
      {"smiles": "COc1c(CN[C@H](c2ccccc2)c2cccs2)c(C)nn1C", "% Inhibition": -5, "Z score": 0.7},
      {"smiles": "Cn1cnc(C(=O)N2CCC[C@H](N(Cc3cccnc3)C(=O)C3CCC3)C2)c1", "% Inhibition": -2, "Z score": 0.21},
      {"smiles": "COc1ccc(OC)c(S(=O)(=O)Nc2ccc3ccn(C)c3c2)c1", "% Inhibition": 5, "Z score": -0.82},
      {"smiles": "Cc1nn(-c2ccc(C(F)(F)F)cc2)c(C)c1[C@@H]1C=C[C@@H](NS(=O)(=O)c2ccccc2)C1", "% Inhibition": 4, "Z score": -0.8}
    ]}
  ]
}
